Experimental findings from PubChem BioAssay AID1159614 (National Center for Advancing Translational Sciences (NCATS), 2016) are described below.

The structures appear in SMILES notation. About 65 (0.1%) of roughly 45,000 compounds were called active. The call rests on the fitted dose curve; in most records, active means well fitted activation curve with a large enough effect; inconclusive means small, poorly fitted or top-dose-only effect; inactive means no such curve, though single readings can be large or run the other way. This is one part of the list.

Chain of UniProt P54803 (P54803 whole entry, looked up): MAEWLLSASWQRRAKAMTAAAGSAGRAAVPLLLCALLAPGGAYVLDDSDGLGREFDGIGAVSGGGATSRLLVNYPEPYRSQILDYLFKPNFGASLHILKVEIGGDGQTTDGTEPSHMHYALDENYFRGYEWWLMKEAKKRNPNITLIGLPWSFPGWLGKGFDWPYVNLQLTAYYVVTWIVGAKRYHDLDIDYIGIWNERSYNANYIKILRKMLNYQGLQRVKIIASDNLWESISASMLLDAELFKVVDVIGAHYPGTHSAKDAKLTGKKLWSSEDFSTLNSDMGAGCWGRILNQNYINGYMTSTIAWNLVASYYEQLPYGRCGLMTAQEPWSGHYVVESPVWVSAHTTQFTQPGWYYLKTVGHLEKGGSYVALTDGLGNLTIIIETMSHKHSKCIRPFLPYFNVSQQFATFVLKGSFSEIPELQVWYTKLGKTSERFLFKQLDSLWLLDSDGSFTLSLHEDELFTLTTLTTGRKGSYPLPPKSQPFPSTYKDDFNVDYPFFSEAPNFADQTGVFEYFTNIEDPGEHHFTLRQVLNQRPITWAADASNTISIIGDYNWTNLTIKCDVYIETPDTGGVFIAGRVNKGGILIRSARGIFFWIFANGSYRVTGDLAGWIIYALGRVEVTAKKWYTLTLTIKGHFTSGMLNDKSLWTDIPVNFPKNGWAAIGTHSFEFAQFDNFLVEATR

The experiment deals with Galactocerebrosidase (Homo sapiens) (UniProt P54803). In words: A Novel Cell-Based Assay to Identify Small Molecules for B -Galactocerebrosidase. Further: 0% is about no effect; nearly all actives have a fitted effect of over 65% in size. The note with it: 145M-Twi-hGALC-G270D cells, HMU-beta-Gal fluorescence, 48 h; series mostly up to 57.5 µM; activation: at the top concentration. The gist of the method:
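qHTS, 1536-well; 145M-Twi-hGALC-G270D cells (WT line also made) in DMEM/F12 + 10% FBS; compound incubation on live cells; HMU-β-gal 0.1 mM final, pH 5.2, NaTC; carbonate stop; fluorescence increase = enhanced residual activity.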
On to `Cc1cc(C)cc(NC2=CC(c3cccc(F)c3)N(c3cc(C)cc(C)c3)C2=O)c1` (stereo not drawn), for which the “activation” value is inactive: -15.7%.

In the case of `Cc1cc(=O)n(Cc2cccc(Cl)c2)c2c1c(C)nn2-c1ccccc1`, the “activation” value is inactive: 6.99%.

With `Cc1cccc(-n2c(=O)c3c4c(sc3n3cnnc23)CCCC4)c1`, the “activation” value was inactive: -19.3%.

Take `CCN1CCN(c2c(S(=O)(=O)c3ccc(C)c(C)c3)cnc3cc(OC)c(OC)cc23)CC1`: the “activation” value was inactive: -18.9%.

With `COc1ccc(CNC(=O)CN(c2ccccc2)S(=O)(=O)N(C)C)cc1`, the “activation” value is inactive: -14.1%.

Take `CCOC(=O)c1cc2c(=O)n3ccccc3nc2n(CCCOC)c1=NC(=O)C(C)Oc1ccccc1` (stereo not drawn): the “activation” value is inactive: -4.92%.

With `CCOc1cc(CNc2ccc(O)cc2)ccc1OCc1ccc(Cl)cc1`, the “activation” value was inactive: -8.37%.

Regarding `CC1CCN(C(=O)Cn2c(=O)oc3cc(S(=O)(=O)N4CCCCC4)ccc32)CC1`, the “activation” value was inactive: 0.786%.

Turning to `CN(C)S(=O)(=O)c1ccc(C(=O)N2CC(=O)Nc3ccc(Br)cc3C2c2ccc(F)cc2)cc1` (stereo not drawn), the “activation” value was inactive: -8.84%.

Take `Cc1ccc(CNC(=O)c2ccc(Cn3c(SCc4ccccc4F)nc4cccnc43)cc2)cc1`: the “activation” value is inactive: -6.81%.

For `COc1ccc(C(CNC(=O)COc2ccc(Cl)c(C)c2)N2CCOCC2)cc1` (stereo not drawn), the “activation” value was inactive: -7.56%.

On to `CCOC(=O)Cn1cnc2onc(-c3ccc(F)cc3)c2c1=O`, for which the “activation” value is inactive: -11.6%.

`CC(=O)Nc1cc(NC(C)=O)cc(-c2nc3ccccc3[nH]2)c1`: the “activation” value is inactive: -11.9%.

Consider `CCN(CC)S(=O)(=O)c1nnc(NC(=O)COc2ccc(Cl)cc2)s1`, for which the “activation” value is inactive: 0.65%.

Consider `CCN(CC)CCNC(=O)c1ccc2c(c1)sc1nc(-c3ccc(F)cc3)cn12`, for which the “activation” value was inactive: -10.4%.

For `CCCCSc1ncnc2c1c(-c1ccccc1)cn2-c1cccc(F)c1`, the “activation” value was inactive: 5.8%.

For `CCn1c(C(=O)N2CCC(C(=O)NCCc3ccc(OC)cc3OC)CC2)cc2sccc21`, the “activation” value is inactive: 7.9%.

As to `CCOC(=O)c1c(C)oc2nc(C)nc(Nc3ccc(CC)cc3)c12`, the “activation” value is inactive: -12%.

Turning to `Cc1cc(C)cc(NS(=O)(=O)c2ccc3c(c2)NC(=O)C(C)S3)c1` (stereo not drawn), the “activation” value is inactive: -10.9%.

For `Cc1ccc(C)c(CN2C(=O)c3ccccc3S(=O)c3ccc(C(=O)NCc4ccccc4)cc32)c1` (stereo not drawn), the “activation” value was inactive: -13.9%.

Take `CCOCCCNC(=O)C1CCC(CNS(=O)(=O)c2ccc(NC(C)=O)cc2)CC1` (stereo not drawn): the “activation” value was inactive: -16.3%.

For the compound `COc1ccccc1Cc1nc2ccccc2[nH]c1=O`, the “activation” value is inactive: -9.55%.

Turning to `COc1ccc(NC(=O)c2ccc(-c3nc(CSc4ccccc4)c(C)o3)cc2)cc1OC`, the “activation” value is inactive: -6.4%.

Regarding `CCc1ccc(S(=O)(=O)c2nnn3c2nc(NC2CCCCCC2)c2sccc23)cc1`, the “activation” value is inactive: -14.5%.

As to `CCN1CCN(c2c(S(=O)(=O)c3ccc(OC)cc3)cnc3cc(OC)c(OC)cc23)CC1`, the “activation” value was inactive: -6.18%.

Consider `Cc1c(C(=O)NCc2ccccc2Br)oc2c1-c1[nH]ncc1CC2`, for which the “activation” value is inactive: -18.4%.

Consider `CCOC(=O)C(CC)Sc1ccc2nnc(CCNS(=O)(=O)c3ccc(C)cc3)n2n1` (stereo not drawn), for which the “activation” value was inactive: -16.7%.

As to `COc1cccc2c1Oc1ncccc1N(C(=O)Nc1ccc(F)c(Cl)c1)C2`, the “activation” value is inactive: -35.4%.

As for `COc1ccc(C(CNC(=O)c2oc3ccc(C)cc3c2C)N2CCOCC2)cc1` (stereo not drawn), the “activation” value was inactive: -9.6%.

As to `COc1ccc(OC)c(NC(=O)N2CCN(S(=O)(=O)c3ccc4c(ccn4C)c3)CC2)c1`, the “activation” value is inactive: -22.5%.

Regarding `COc1cc(OC)cc(C(=O)Nc2ccc3nc(N4CCCCC4)cc(C)c3c2)c1`, the “activation” value was inactive: -11.4%.

Regarding `CCn1cc(C(=O)N2CCN(c3cccc(Cl)c3)CC2)c(=O)c2cc(S(=O)(=O)N3CCCCC3)ccc21`, the “activation” value is inactive: -31.4%.

`Cc1ccc2nc(-c3ccc(O)cc3)c(Nc3ccc4c(c3)OCCO4)n2c1`: the “activation” value is inactive: -12.7%.

With `CCCSCCCNC(=O)C1CCN(c2nn3cc(-c4ccc(F)cc4)nc3s2)CC1`, the “activation” value is inactive: 9.45%.

For the compound `O=C(NCc1ccccc1Cl)C(=O)NCC(c1cccs1)S(=O)(=O)c1cccs1` (stereo not drawn), the “activation” value is inactive: -30.4%.

Regarding `CC(C)Cn1c(=O)c2ccccc2n2c(CCC(=O)N3CCN(c4ccccc4F)CC3)nnc12`, the “activation” value is inactive: -5.87%.

As for `CCCn1c(-c2ccc(S(=O)(=O)N3CCOCC3)cc2)csc1=Nc1ccc(OCC)cc1`, the “activation” value is inactive: -9.46%.

As to `COc1cccc(C(=O)c2sc3nc(-c4ccccc4)cc(C(F)(F)F)c3c2N)c1`, the “activation” value was inactive: -13.4%.

As for `CCOC(=O)c1c(C)oc2ncnc(Nc3ccc(OCC)cc3)c12`, the “activation” value was inactive: -6.91%.

As for `Cc1ccc(C)c(N2C(=O)N(Cc3cc(=O)n4ccccc4n3)c3ccccc3S2(=O)=O)c1`, the “activation” value was inactive: -2.93%.

As for `Cc1ccc(C)n1-c1nnc(N2CCCC(C(=O)Nc3ccc(C(C)C)cc3)C2)s1` (stereo not drawn), the “activation” value was inactive: 5.59%.

For `CCC1CCCCN1CCCNC(=O)c1cc2c(Cl)nc3ccccc3c2s1` (stereo not drawn), the “activation” value is inactive: 2.23%.

As to `COC(=O)c1ccccc1NC(=O)Cn1c(=O)n(Cc2ccc(C(=O)NCc3ccc4c(c3)OCO4)cc2)c(=O)c2ccccc21`, the “activation” value is inactive: 6.02%.

Take `COc1cccc(NC(=O)CNC(=O)Cn2c(C)cc3ccccc3c2=O)c1`: the “activation” value was inactive: -9.78%.

Turning to `Cc1ccc(N(CC(=O)NCCc2ccccc2)S(=O)(=O)N(C)C)cc1`, the “activation” value was inactive: -14.3%.

On to `N#Cc1ccccc1NC(=O)Cn1cnc2onc(-c3cccc(F)c3)c2c1=O`, for which the “activation” value is inactive: 1.07%.

Regarding `COc1cc(C)ccc1OCCSc1nc2ccc(NC(=O)c3ccc(F)cc3)cc2s1`, the “activation” value is inactive: -16.1%.

As to `Cn1ccc2cc(S(=O)(=O)N3CCC(C(=O)NCCc4ccccc4)CC3)ccc21`, the “activation” value is inactive: 2.66%.
